System: Vcap cells (androgen receptor (+) prostate cancer cells)
Experiment: CTG cell proliferation assay (CellTiter-Glo), compounds alone or in combination

SMILES | Survival rate of Vcap cells (1 μM tested compound in combination with 1 μM Abiraterone acetate) [%] | Survival rate of Vcap cells (1 μM tested compound in combination with 1 μM ODM-201) [%] | Survival rate of Vcap cells (10 μM tested compound in combination with 1 μM Abiraterone acetate) [%] | Survival rate of Vcap cells (10 μM tested compound in combination with 1 μM ODM-201) [%] | Survival rate of Vcap cells (10 μM tested compound in combination with 1 μM B001 and 1 μM prednisone) [%]
CC1(C)C(=O)N(c2ccc(C#N)c(C(F)(F)F)c2F)C(=S)N1c1ccc(CCCc2ncco2)nc1 [AR2-5] | 80.0 | 75.7 | 68.4 | 70.3 | 
CC1(C)C(=O)N(c2ccc(C#N)c(C(F)(F)F)c2F)C(=S)N1c1ccc(CCCC#N)c(F)c1 [AR2-4] |  |  |  |  | 34.2
